Source: the supplement of paper PMC10126150
Sequences with one replicate were seen in a single cluster, so their values are uncertain.
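Further: ATP exposure 15 min at 22 °C before imaging.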

What follows are sequences tested on ATP (assay: switch fluorescence ratio, 500 uM ATP over buffer (Cy3 cluster intensity, sum of 5 cycles each) (fold (ratio)); higher = stronger signal-on switching upon ATP binding; sequences stand for … in TCGTCGGCAGCGTCAGATGTGTATAAGAGACAGTTTTTTTTTTTTTTTTTTTTTTTTT…TC). Conditions: aptamer strand: ATP DNA aptamer (quencher-CACCTGGGGGAGTATTGCGGAGGAAGG + anchor), 100 nM annealed; ATP concentration: 500 uM; one replicate.
Summary of the method: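 After annealing to 100 nM quencher-labelled ATP aptamer, Cy3-labelled switching-strand clusters on a modified Illumina MiSeq flow-cell were imaged in selection buffer. A second image followed after 15 min with 500 uM ATP at 22 °C, and five such buffer/ATP cycles were done, each separated by NaOH stripping and re-annealing. The fluorescence ratio, averaged per switch-domain sequence, is summed target-cycle over summed buffer-cycle Cy3 intensity per cluster, with clusters outside 100-1000 RFU excluded.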
TAAAGGCCGG gave a switch fluorescence ratio of 0.988. Work on TAAAGGGTTC yielded a switch fluorescence ratio of 1.04. TAAAGGTTA gave a switch fluorescence ratio of 1.01. TAAAGTCCGC gave a switch fluorescence ratio of 1.15. TAAATAAGGA was tested, and the switch fluorescence ratio was 1.04. In the case of TAAATACCAA, the switch fluorescence ratio is reported as 1.07. TAAATCAGGC was tested, and the switch fluorescence ratio was 0.93. Sequence TAAATCCACA has a switch fluorescence ratio of 1.05. TAAATCGCCC showed a switch fluorescence ratio of 1.12. TAAATCGTTA showed a switch fluorescence ratio of 1.08. TAAATGAGCA showed a switch fluorescence ratio of 0.955. Work on TAAATGCTCG yielded a switch fluorescence ratio of 0.941. TAAATGGATT showed a switch fluorescence ratio of 0.945. Work on TAAATGTTTC yielded a switch fluorescence ratio of 0.993. Sequence TAAATTACG has a switch fluorescence ratio of 1.09. TAAATTGGGC was tested, and the switch fluorescence ratio was 1. Sequence TAACACGCTC has a switch fluorescence ratio of 1.01. TAACACGTTT gave a switch fluorescence ratio of 1.01. TAACAGTTCT showed a switch fluorescence ratio of 0.971. For TAACATAAAG, the switch fluorescence ratio was 0.953. Sequence TAACATACTT has a switch fluorescence ratio of 1.3. Work on TAACCAGGTA yielded a switch fluorescence ratio of 1.12. In the case of TAACCCACTA, the switch fluorescence ratio is reported as 1.12. With TAACCCTTTT the switch fluorescence ratio was 1.03. In the case of TAACCTCGAG, the switch fluorescence ratio is reported as 0.985. Sequence TAACCTGGTA has a switch fluorescence ratio of 1.05. TAACGACAC was tested, and the switch fluorescence ratio was 1.66. With TAACGACAGA the switch fluorescence ratio was 1. Work on TAACGACCCG yielded a switch fluorescence ratio of 1.06. For TAACGAGAGG, the switch fluorescence ratio was 0.961. With TAACGAGCAT the switch fluorescence ratio was 1.11. TAACGAGTAG was tested, and the switch fluorescence ratio was 1. In the case of TAACGAGTGC, the switch fluorescence ratio is reported as 1.01. TAACGGGTAC was tested, and the switch fluorescence ratio was 1.55. TAACGGTAAG was tested, and the switch fluorescence ratio was 1.02. In the case of TAACGTCTAG, the switch fluorescence ratio is reported as 1.01. TAACTCTCCT was tested, and the switch fluorescence ratio was 1.02. Work on TAACTCTGTA yielded a switch fluorescence ratio of 1.05. TAACTGAAT gave a switch fluorescence ratio of 1.06. TAACTGAGAT gave a switch fluorescence ratio of 0.987. With TAACTGGAAC the switch fluorescence ratio was 1.06. TAACTGGGCG gave a switch fluorescence ratio of 1.01. With TAACTGTTGA the switch fluorescence ratio was 0.941. Sequence TAACTTACAG has a switch fluorescence ratio of 1.14. Sequence TAACTTGAGG has a switch fluorescence ratio of 0.979. TAACTTTCT showed a switch fluorescence ratio of 1.05. In the case of TAACTTTTGT, the switch fluorescence ratio is reported as 0.958. Work on TAAGAAGGCC yielded a switch fluorescence ratio of 0.934. TAAGACGAAA showed a switch fluorescence ratio of 1.02. TAAGACTG showed a switch fluorescence ratio of 1.05. TAAGACTGCT was tested, and the switch fluorescence ratio was 0.994. TAAGAGAGAT gave a switch fluorescence ratio of 1.01. TAAGAGAGTT gave a switch fluorescence ratio of 1.02. For TAAGAGATGA, the switch fluorescence ratio was 1.01. TAAGAGTTAT was tested, and the switch fluorescence ratio was 1.06. TAAGAGTTTA was tested, and the switch fluorescence ratio was 0.985. With TAAGATATGT the switch fluorescence ratio was 0.972. TAAGATGC was tested, and the switch fluorescence ratio was 1.26. Work on TAAGATTGCG yielded a switch fluorescence ratio of 1.01. For TAAGATTTT, the switch fluorescence ratio was 0.988. For TAAGCACGCC, the switch fluorescence ratio was 1.17. TAAGCAGCGT gave a switch fluorescence ratio of 1.04. TAAGCCACAC showed a switch fluorescence ratio of 1.11. With TAAGCCCTTT the switch fluorescence ratio was 1.04. Work on TAAGCGTCTA yielded a switch fluorescence ratio of 0.992. Sequence TAAGCTTGTT has a switch fluorescence ratio of 0.992. TAAGGACGG showed a switch fluorescence ratio of 0.965. Work on TAAGGCAAGA yielded a switch fluorescence ratio of 1.09. Sequence TAAGGCCATT has a switch fluorescence ratio of 0.999. Sequence TAAGGCGGCA has a switch fluorescence ratio of 1.05. Sequence TAAGGTTTTA has a switch fluorescence ratio of 0.988. TAAGTACATA was tested, and the switch fluorescence ratio was 1.23. For TAAGTACGTT, the switch fluorescence ratio was 1.11. TAAGTACTGC gave a switch fluorescence ratio of 1.19. In the case of TAAGTATCGT, the switch fluorescence ratio is reported as 0.97. TAAGTATGAT was tested, and the switch fluorescence ratio was 0.96. Sequence TAAGTCATCT has a switch fluorescence ratio of 1.02. In the case of TAAGTCCTAG, the switch fluorescence ratio is reported as 1.03. For TAAGTGAGTG, the switch fluorescence ratio was 1.01. TAAGTGGCG was tested, and the switch fluorescence ratio was 0.969. Work on TAAGTGGTAT yielded a switch fluorescence ratio of 0.948. Sequence TAAGTGTGCG has a switch fluorescence ratio of 0.879. With TAAGTGTTAC the switch fluorescence ratio was 1.03. Sequence TAAGTTAAAA has a switch fluorescence ratio of 0.968. With TAAGTTACGG the switch fluorescence ratio was 1.4. Work on TAAGTTCTCA yielded a switch fluorescence ratio of 1.04. Sequence TAAGTTTACG has a switch fluorescence ratio of 1.01. Sequence TAAGTTTAGA has a switch fluorescence ratio of 1.04. TAATAAGTAT was tested, and the switch fluorescence ratio was 1.43. TAATAGGACT was tested, and the switch fluorescence ratio was 1.02. With TAATAGGTC the switch fluorescence ratio was 1.05. TAATAGTAGG gave a switch fluorescence ratio of 0.985. In the case of TAATATACTT, the switch fluorescence ratio is reported as 1.13. In the case of TAATATCTGT, the switch fluorescence ratio is reported as 1.01. TAATATTAAA showed a switch fluorescence ratio of 0.985. With TAATCAG the switch fluorescence ratio was 0.973. TAATCAGAAC showed a switch fluorescence ratio of 0.93. In the case of TAATCCCAGC, the switch fluorescence ratio is reported as 1.03. Work on TAATCCTGCT yielded a switch fluorescence ratio of 0.95. TAATCGAGTA gave a switch fluorescence ratio of 1.03. TAATCGATA gave a switch fluorescence ratio of 1.01. In the case of TAATCGCAAT, the switch fluorescence ratio is reported as 4.35. TAATCGGAGA gave a switch fluorescence ratio of 0.976. Work on TAATCGTCTT yielded a switch fluorescence ratio of 1.01. Work on TAATCTTTCT yielded a switch fluorescence ratio of 1.01. In the case of TAATGAAGCA, the switch fluorescence ratio is reported as 1.04. For TAATGACTTA, the switch fluorescence ratio was 0.991. With TAATGAGCCG the switch fluorescence ratio was 1.08. TAATGCAACC showed a switch fluorescence ratio of 1.48. TAATGCTAAC was tested, and the switch fluorescence ratio was 1.05. Work on TAATGCTCAC yielded a switch fluorescence ratio of 1.06. TAATGGAACT showed a switch fluorescence ratio of 1.02. For TAATGGGGTA, the switch fluorescence ratio was 1.01. TAATGGTCA was tested, and the switch fluorescence ratio was 1.06. Work on TAATGTAGGA yielded a switch fluorescence ratio of 0.962. Sequence TAATGTCGGA has a switch fluorescence ratio of 0.96. TAATGTCGGT gave a switch fluorescence ratio of 0.995. Work on TAATGTTAAT yielded a switch fluorescence ratio of 0.986. TAATGTTCAT was tested, and the switch fluorescence ratio was 1.02. For TAATTAACGA, the switch fluorescence ratio was 1. In the case of TAATTACCAG, the switch fluorescence ratio is reported as 1.01. TAATTAGATC was tested, and the switch fluorescence ratio was 0.997. With TAATTCATGT the switch fluorescence ratio was 1.04. Sequence TAATTGCGCG has a switch fluorescence ratio of 0.967. Sequence TAATTGGCCG has a switch fluorescence ratio of 0.899. TAATTTCGGA was tested, and the switch fluorescence ratio was 0.98. TAATTTGGTA was tested, and the switch fluorescence ratio was 0.979. In the case of TAATTTGTCT, the switch fluorescence ratio is reported as 1. For TACAAATGAC, the switch fluorescence ratio was 1.04. TACAACATGC gave a switch fluorescence ratio of 1.09. TACAACCGCC was tested, and the switch fluorescence ratio was 1.31. For TACAACGGCC, the switch fluorescence ratio was 1.02. In the case of TACAACTTCT, the switch fluorescence ratio is reported as 0.952. TACAAGAAAG showed a switch fluorescence ratio of 1.03. In the case of TACAAGATAT, the switch fluorescence ratio is reported as 1.03. With TACAAGGAGG the switch fluorescence ratio was 0.968. With TACAAGTTGA the switch fluorescence ratio was 0.952. TACAATACAG showed a switch fluorescence ratio of 1.13. Work on TACAATAGCG yielded a switch fluorescence ratio of 1.07. TACAATGGAG gave a switch fluorescence ratio of 1.02. For TACACACGTT, the switch fluorescence ratio was 1.4. TACACCCAGA gave a switch fluorescence ratio of 1.24. Sequence TACACGCCAG has a switch fluorescence ratio of 1.08. TACACTGAGT was tested, and the switch fluorescence ratio was 1.04. Work on TACACTTATG yielded a switch fluorescence ratio of 1.03. For TACAGAAATG, the switch fluorescence ratio was 1.01. Work on TACAGATGAT yielded a switch fluorescence ratio of 0.982. With TACAGCGCTT the switch fluorescence ratio was 0.982. In the case of TACAGGATGA, the switch fluorescence ratio is reported as 0.998. In the case of TACAGTACAT, the switch fluorescence ratio is reported as 1.29. TACAGTCGCT gave a switch fluorescence ratio of 1.07. TACAGTGGAA was tested, and the switch fluorescence ratio was 1.04. With TACAGTTAGA the switch fluorescence ratio was 1.
